These results are taken from patent US7592316B2, “Peptides as NS3-serine protease inhibitors of hepatitis C virus” (Schering Corporation, priority 2000, dated 2009).

The Ki is a dissociation constant, usually derived from enzyme kinetics or from competition with a known ligand.

In the test the target is HCV NS3/NS4A protease (strain 1a) (Hepatitis C virus genotype 1a, UniProt P27958). As to the kind of experiment: biochemical. To be noted: Table 5; HCV NS3/NS4A protease, spectrophotometric assay, 30° C., pH 6.5; read-out: Ki* Range.
Turning to `CCCC(NC(=O)[C@@H]1[C@@H]2[C@H](CN1C(=O)C(NC(=O)OC(C)(C)C)C1CCC(F)(F)CC1)C2(C)C)C(=O)C(N)=O` (stereo partly shown), the Ki fell in the range of 101 to 1000 nM.
For `CCCCC(NC(=O)C1C2CCC(C2)N1C(=O)[C@H](NC(=O)OC(C)(C)C)C1CCCCC1)C(=O)C(N)=O` (stereo partly shown), the Ki was more than 1000 nM.
As for `CCCC(NC(=O)[C@@H]1C2C(CN1C(=O)[C@@H](NC(=O)OC(C)(C)C)C1Cc3ccccc3C1)C2(C)C)C(=O)C(N)=O` (stereo partly shown), the Ki lay within 1 to 100 nM.
For the compound `CCCC(NC(=O)[C@@H]1CC(C)(C)CN1C(=O)[C@@H](NC(=O)O[C@H](C)C(C)C)C(C)(C)C)C(=O)C(N)=O` (stereo partly shown), the Ki was more than 1000 nM.
With `CCCC(NC(=O)C1C2C(CN1C(=O)C(NC(=O)O[C@H](C)C(C)C)C1Cc3ccccc3C1)C2(C)C)C(=O)C(N)=O` (stereo partly shown) the figure was 101 to 1000 nM; with `C=CCCC(NC(=O)[C@@H]1C2C(CN1C(=O)[C@@H](NC(=O)OC(C)(C)C)C1CCCCC1)C2(C)C)C(=O)C(N)=O` (stereo partly shown), 101 to 1000 nM; with `CCCC(NC(=O)C1C2CC(C3CC32)N1C(=O)C(NC(=O)OC(C)(C)C)C1CCCCC1)C(=O)C(N)=O` (stereo not shown), more than 1000 nM.
With `NC(=O)C(=O)C(CC1CC1)NC(=O)[C@@H]1[C@H]2[C@@H](CN1C(=O)[C@@H](NC(=O)NC1CCCCC1)C1Cc3ccccc3C1)C2(Cl)Cl` (stereo partly shown), the inhibition constant Ki was 1 to 100 nM.
Take `COCC(NC(=O)[C@@H]1[C@@H]2[C@H](CN1C(=O)[C@@H](NC(=O)OC(C)(C)C)C(C)(C)C)C2(C)C)C(=O)C(N)=O` (stereo partly shown): the Ki is more than 1000 nM.
For the compound `CC(C)(C)NC(=O)N[C@H](C(=O)N1C[C@H]2[C@@H]([C@H]1C(=O)NC(CC1CC1)C(=O)C(N)=O)C2(Cl)Cl)C1Cc2ccccc2C1` (stereo partly shown), the Ki was 1 to 100 nM.
Turning to `CC(C)N(C(=O)N[C@H](C(=O)N1C[C@@H]2[C@H]([C@H]1C(=O)NC(CC1CCC1)C(=O)C(N)=O)C2(C)C)C1CCCCC1)C(C)C` (stereo partly shown), the Ki is 101 to 1000 nM.
With `CN(C)C(=O)N[C@H](C(=O)N1C[C@@H]2[C@H]([C@H]1C(=O)NC(CC1CCC1)C(=O)C(N)=O)C2(C)C)C1CCCCC1` (stereo partly shown), the Ki lay within 101 to 1000 nM.
As to `CN(C(=O)N[C@H](C(=O)N1C[C@@H]2[C@H]([C@H]1C(=O)NC(CC1CCC1)C(=O)C(N)=O)C2(C)C)C1CCCCC1)c1ccccc1` (stereo partly shown), the Ki was more than 1000 nM.
On to `CC1(C)[C@H]2[C@@H](C(=O)NC(CC3CCC3)C(=O)C(N)=O)N(C(=O)[C@@H](NC(=O)N3CCCC3)C3CCCCC3)C[C@H]21` (stereo partly shown), for which the inhibition constant Ki lay in the range of 101 to 1000 nM.
For the compound `CC(C)(C)OC(=O)NC(C(=O)N1C[C@@H]2[C@H]([C@H]1C(=O)NC(CC1CCC1)C(=O)C(N)=O)C2(Cl)Cl)C(C)(C)C` (stereo partly shown), the Ki was 1 to 100 nM.
In the case of `CC(C)(C)NC(=O)NC(C(=O)N1C[C@@H]2[C@H]([C@H]1C(=O)NC(CC1CCC1)C(=O)C(N)=O)C2(Cl)Cl)C(C)(C)C` (stereo partly shown), the inhibitory constant (Ki) is 1 to 100 nM.
Regarding `CC(C)(C)C(NC(=O)NC1CCCCC1)C(=O)N1C[C@@H]2[C@H]([C@H]1C(=O)NC(CC1CCC1)C(=O)C(N)=O)C2(Cl)Cl` (stereo partly shown), the Ki lay within 1 to 100 nM.
In the case of `C[C@H]1CCC[C@@H]1OC(=O)N[C@H](C(=O)N1C[C@H]2[C@@H]([C@H]1C(=O)NC(CC1CC1)C(=O)C(N)=O)C2(C)C)C(C)(C)C` (stereo partly shown) it was 1 to 100 nM; in that of `C[C@H]1CCC[C@@H]1OC(=O)N[C@H](C(=O)N1C[C@H]2[C@@H]([C@H]1C(=O)NC(CC1CC1)C(=O)C(N)=O)C2(C)C)C1CCCCC1` (stereo partly shown), 1 to 100 nM; in that of `CC(C)(C)OC(=O)N[C@H](C(=O)N1C[C@H]2[C@@H]([C@H]1C(=O)NC(CCC(F)F)C(=O)C(N)=O)C2(C)C)C1CCCCC1` (stereo partly shown), more than 1000 nM.
For `CCCC(NC(=O)[C@@H]1[C@@H]2[C@H](CN1C(=O)[C@@H](NC(=O)OC(C)(C)C)C(C)(C)C)C2(Cl)Cl)C(=O)C(N)=O` (stereo partly shown), the inhibitory constant (Ki) fell in the range of 1 to 100 nM.
With `CC(C)(C)OC(=O)N[C@H](C(=O)N1C[C@H]2[C@@H]([C@H]1C(=O)NC(CC(F)(F)F)C(=O)C(N)=O)C2(C)C)C(C)(C)C` (stereo partly shown) the figure was 101 to 1000 nM.
Take `CC(C)(C)OC(=O)N[C@H](C(=O)N1C[C@@H]2[C@H]([C@H]1C(=O)NC(CC1CC1)C(=O)C(N)=O)C2(Cl)Cl)C(C)(C)C` (stereo partly shown): the Ki lay in the range of 1 to 100 nM.
As for `CC(C)(C)NC(=O)N[C@H](C(=O)N1C[C@@H]2[C@H]([C@H]1C(=O)NC(CC1CC1)C(=O)C(N)=O)C2(Cl)Cl)C(C)(C)C` (stereo partly shown), the Ki lay in the range of 1 to 100 nM.
For `CN(C(=O)N[C@H](C(=O)N1C[C@H]2[C@@H]([C@H]1C(=O)NC(CC1CC1)C(=O)C(N)=O)C2(C)C)C(C)(C)C)C1CCCCC1` (stereo partly shown), the Ki lay within 101 to 1000 nM.
For the compound `CC(C)(O)COC(=O)N[C@H](C(=O)N1C[C@H]2[C@@H]([C@H]1C(=O)NC(CC1CC1)C(=O)C(N)=O)C2(C)C)C(C)(C)C` (stereo partly shown), the Ki lay within 101 to 1000 nM.
Take `CC(C)(CO[Si](C)(C)C(C)(C)C)OC(=O)N[C@H](C(=O)N1C[C@H]2[C@@H]([C@H]1C(=O)NC(CC1CC1)C(=O)C(N)=O)C2(C)C)C1CCCCC1` (stereo partly shown): the Ki was more than 1000 nM.
Take `CC(C)(CO[Si](C)(C)C(C)(C)C)OC(=O)N[C@H](C(=O)N1C[C@H]2[C@@H]([C@H]1C(=O)NC(CC1CC1)C(=O)C(N)=O)C2(C)C)C(C)(C)C` (stereo partly shown): the Ki is more than 1000 nM.
With `CCCC(NC(=O)[C@@H]1[C@@H]2[C@H](CN1C(=O)[C@@H](NC(=O)OC1CCC(C)C1)C(C)(C)C)C2(C)C)C(=O)C(N)=O` (stereo partly shown) the figure was 101 to 1000 nM; with `CC1CCC(OC(=O)N[C@H](C(=O)N2C[C@H]3[C@@H]([C@H]2C(=O)NC(CC2CC2)C(=O)C(N)=O)C3(C)C)C2CCCCC2)CC1` (stereo partly shown), 101 to 1000 nM.
For `CC1CCC(OC(=O)N[C@H](C(=O)N2C[C@H]3[C@@H]([C@H]2C(=O)NC(CC2CC2)C(=O)C(N)=O)C3(C)C)C2CCCCC2)C1` (stereo partly shown), the Ki was in the range of 1 to 100 nM.
In the case of `CC1CCC(OC(=O)N[C@H](C(=O)N2C[C@H]3[C@@H]([C@H]2C(=O)NC(CC2CC2)C(=O)C(N)=O)C3(C)C)C(C)(C)C)C1` (stereo partly shown), the Ki fell in the range of 1 to 100 nM.
On to `CC1CCCC(OC(=O)N[C@H](C(=O)N2C[C@H]3[C@@H]([C@H]2C(=O)NC(CC2CC2)C(=O)C(N)=O)C3(C)C)C2CCCCC2)C1` (stereo partly shown), for which the Ki lay within 101 to 1000 nM.
With `CC(C)(C)OC(=O)N[C@H](C(=O)N1C[C@H]2[C@@H]([C@H]1C(=O)NC(CC(F)(F)F)C(=O)C(N)=O)C2(C)C)C1Cc2ccccc2C1` (stereo partly shown), the Ki fell in the range of 101 to 1000 nM.
Take `CC(C)(C)OC(=O)N[C@H](C(=O)N1C[C@H]2[C@@H]([C@H]1C(=O)NC(CCC(F)(F)F)C(=O)C(N)=O)C2(C)C)C1CCCCC1` (stereo partly shown): the Ki lay in the range of 1 to 100 nM.
With `CC(C)(C)NC(=O)N[C@H](C(=O)N1C[C@H]2[C@@H]([C@H]1C(=O)NC(CC(F)(F)F)C(=O)C(N)=O)C2(C)C)C1CCCCC1` (stereo partly shown) the figure was 101 to 1000 nM; with `CC(C)(C)NC(=O)N[C@H](C(=O)N1C[C@H]2[C@@H]([C@H]1C(=O)NC(CC(F)(F)F)C(=O)C(N)=O)C2(C)C)C(C)(C)C` (stereo partly shown), more than 1000 nM; with `CCCC[C@H](NC(=O)[C@@H]1[C@H]2[C@@H]3CC[C@@H](C3)[C@H]2CN1C(=O)[C@@H](NC(=O)OCC(C)C)C(C)(C)C)C(=O)C(=O)NCC(=O)NC(C(=O)N(C)C)c1ccccc1` (stereo partly shown), more than 1000 nM.
Turning to `CCCCC(NC(=O)[C@@H]1[C@H]2[C@@H]3CC[C@@H](C3)[C@H]2CN1C(=O)[C@@H](NC(=O)OCC(C)C)C(C)(C)C)C(=O)C(=O)NCC(=O)NC(C(=O)N(C)C)c1ccccc1` (stereo partly shown), the Ki fell in the range of 101 to 1000 nM.
In the case of `CCCC(NC(=O)[C@@H]1[C@H]2OC(C)(C)O[C@H]2CN1C(=O)[C@@H](NC(=O)OC(C)(C)C)C(C)(C)C)C(=O)C(=O)NCC(=O)NC(C(=O)N(C)C)c1ccccc1` (stereo partly shown) it was 1 to 100 nM; in that of `CCC[C@H](NC(=O)[C@@H]1[C@H]2OC(C)(C)O[C@H]2CN1C(=O)[C@@H](NC(=O)OC(C)(C)C)C(C)(C)C)C(=O)C(=O)NCC(=O)NC(C(=O)N(C)C)c1ccccc1` (stereo partly shown), 1 to 100 nM.
As to `CCCC[C@@H](NC(=O)[C@@H]1[C@H]2OC(C)(C)O[C@H]2CN1C(=O)[C@@H](NC(=O)OC(C)(C)C)C(C)(C)C)C(=O)C(=O)NCC(=O)NC(C(=O)N(C)C)c1ccccc1` (stereo partly shown), the Ki is 101 to 1000 nM.
In the case of `CCCCC(NC(=O)[C@@H]1[C@H]2OC(C)(C)O[C@H]2CN1C(=O)[C@@H](NC(=O)OC(C)(C)C)C(C)(C)C)C(=O)C(=O)NCC(=O)NC(C(=O)N(C)C)c1ccccc1` (stereo partly shown), the inhibition constant (Ki) lay within 101 to 1000 nM.
In the case of `CC(=O)N1CC2C([C@H]1C(=O)NC(CC1CC1)C(=O)C(=O)NCC(=O)N[C@H](C(=O)N(C)C)c1ccccc1)C2(C)C` (stereo partly shown) it was more than 1000 nM; in that of `CN(C)C(=O)[C@@H](NC(=O)CNC(=O)C(=O)C(CC1CC1)NC(=O)[C@@H]1C2C(CN1C(=O)CC(C)(C)C)C2(C)C)c1ccccc1` (stereo partly shown), 101 to 1000 nM.
With `CC(C)OC(=O)N[C@H](C(=O)N1CC2C([C@H]1C(=O)NC(CC1CC1)C(=O)C(=O)NCC(=O)N[C@H](C(=O)N(C)C)c1ccccc1)C2(C)C)C(C)(C)C` (stereo partly shown), the Ki is 1 to 100 nM.
Take `CCCC(NC(=O)C1[C@@H]2[C@H](CN1C(=O)[C@@H](NC(=O)OC(C)(C)C)C(C)(C)C)C2(C)C)C(=O)C(=O)NCC(=O)N[C@H](C(=O)N(C)C)c1ccccc1` (stereo partly shown): the Ki was in the range of 1 to 100 nM.
Regarding `CCCC(NC(=O)C1[C@H]2[C@@H](CN1C(=O)[C@@H](NC(=O)OCC(C)C)C(C)(C)C)C2(C)C)C(=O)C(=O)NCC(=O)N[C@H](C(=O)N(C)C)c1ccccc1` (stereo partly shown), the inhibition constant Ki is 1 to 100 nM.
`CC(OC(=O)N[C@H](C(=O)N1CC2C([C@H]1C(=O)NC(CC1CC1)C(=O)C(=O)NCC(=O)N[C@H](C(=O)N(C)C)c1ccccc1)C2(C)C)C(C)(C)C)C1CC1` (stereo partly shown): the Ki lay within 1 to 100 nM.
For `CC(=O)N[C@H](C(=O)N1CC2C([C@H]1C(=O)NC(CC1CC1)C(=O)C(=O)NCC(=O)N[C@H](C(=O)N(C)C)c1ccccc1)C2(C)C)C(C)(C)C` (stereo partly shown), the Ki fell in the range of 1 to 100 nM.
As for `CN(C)C(=O)[C@@H](NC(=O)CNC(=O)C(=O)C(CC1CC1)NC(=O)[C@@H]1[C@@H]2[C@H](CN1C(=O)OC(C)(C)C)C2(C)C)c1ccccc1` (stereo partly shown), the Ki was more than 1000 nM.
On to `CC(=O)O[C@H](C(=O)N1CC2C([C@H]1C(=O)NC(CC1CC1)C(=O)C(=O)NCC(=O)N[C@H](C(=O)N(C)C)c1ccccc1)C2(C)C)C(C)(C)C` (stereo partly shown), for which the Ki is more than 1000 nM.
For the compound `CN(C)C(=O)[C@@H](NC(=O)CNC(=O)C(=O)C(CC1CC1)NC(=O)[C@@H]1C2C(CN1C(=O)CC1CCCCC1)C2(C)C)c1ccccc1` (stereo partly shown), the Ki fell in the range of 101 to 1000 nM.
As to `CN(C)C(=O)[C@@H](NC(=O)CNC(=O)C(=O)C(CC1CC1)NC(=O)[C@@H]1C2C(CN1C(=O)[C@@H](O)C(C)(C)C)C2(C)C)c1ccccc1` (stereo partly shown), the Ki lay within 101 to 1000 nM.
On to `CCCC(NC(=O)C1C2CCC(C2)N1C(=O)[C@H](NC(=O)OC(C)(C)C)C(C)(C)C)C(=O)C(=O)NCC(=O)N[C@H](C(=O)N(C)C)c1ccccc1` (stereo partly shown), for which the Ki is 101 to 1000 nM.
